Laboratory results taken from publication PMC9911399, “Two distinct binding modes provide the RNA-binding protein RbFox with extraordinary sequence specificity”.
Where a chain is given by its changes, count along the chain named. The list shows a part of the results.

T1: RBFOX1 RRM RbFoxmut (Fox-RRM*) (Homo sapiens, UniProt Q9NWB1 109-208, R118D;E147R;N151S;E152T)
T1 sequence: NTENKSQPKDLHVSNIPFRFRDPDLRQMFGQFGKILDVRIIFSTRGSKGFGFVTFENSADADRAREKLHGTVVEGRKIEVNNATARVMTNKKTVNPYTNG

B1: AAAGUUC (DNA:RNA)
RNA: GGGAGACCGGAAUUCAGAUUGUCCAAAGUUCUUAAAUCCCGUCGUAGCCACCA
DNA 1: CAATCTGAATTCCGGTCTCCC
DNA 2: TGGTGGCTACGACGGGATT
B2: GCAAUUG (DNA:RNA)
RNA: B1 RNA with A25G, A26C, G28A, C31G
DNA 1: CAATCTGAATTCCGGTCTCCC
DNA 2: TGGTGGCTACGACGGGATT
B3: CGAUUUG (DNA:RNA)
RNA: B1 RNA with A25C, A26G, G28U, C31G
DNA 1: CAATCTGAATTCCGGTCTCCC
DNA 2: TGGTGGCTACGACGGGATT
B4: AGGGAUA (DNA:RNA)
RNA: B1 RNA with A26G, A27G, U29A, C31A
DNA 1: CAATCTGAATTCCGGTCTCCC
DNA 2: TGGTGGCTACGACGGGATT
B5: CGACAAU (DNA:RNA)
RNA: B1 RNA with A25C, A26G, G28C, U29A, U30A, C31U
DNA 1: CAATCTGAATTCCGGTCTCCC
DNA 2: TGGTGGCTACGACGGGATT
B6: GACCUAC (DNA:RNA)
RNA: B1 RNA with A25G, A27C, G28C, U30A
DNA 1: CAATCTGAATTCCGGTCTCCC
DNA 2: TGGTGGCTACGACGGGATT
B7: CAAUUCU (DNA:RNA)
RNA: B1 RNA with A25C, G28U, U30C, C31U
DNA 1: CAATCTGAATTCCGGTCTCCC
DNA 2: TGGTGGCTACGACGGGATT
B8: UGUGCUU (DNA:RNA)
RNA: B1 RNA with A25U, A26G, A27U, U29C, C31U
DNA 1: CAATCTGAATTCCGGTCTCCC
DNA 2: TGGTGGCTACGACGGGATT
B9: UUACGUA (DNA:RNA)
RNA: B1 RNA with A25U, A26U, G28C, U29G, C31A
DNA 1: CAATCTGAATTCCGGTCTCCC
DNA 2: TGGTGGCTACGACGGGATT
B10: UCGGUCU (DNA:RNA)
RNA: B1 RNA with A25U, A26C, A27G, U30C, C31U
DNA 1: CAATCTGAATTCCGGTCTCCC
DNA 2: TGGTGGCTACGACGGGATT
B11: AAACUUC (DNA:RNA)
RNA: B1 RNA with G28C
DNA 1: CAATCTGAATTCCGGTCTCCC
DNA 2: TGGTGGCTACGACGGGATT
B12: CAGGUGU (DNA:RNA)
RNA: B1 RNA with A25C, A27G, U30G, C31U
DNA 1: CAATCTGAATTCCGGTCTCCC
DNA 2: TGGTGGCTACGACGGGATT
B13: GAAGGGA (DNA:RNA)
RNA: B1 RNA with A25G, U29G, U30G, C31A
DNA 1: CAATCTGAATTCCGGTCTCCC
DNA 2: TGGTGGCTACGACGGGATT
B14: UUACCAA (DNA:RNA)
RNA: B1 RNA with A25U, A26U, G28C, U29C, U30A, C31A
DNA 1: CAATCTGAATTCCGGTCTCCC
DNA 2: TGGTGGCTACGACGGGATT
B15: AGUAAAU (DNA:RNA)
RNA: B1 RNA with A26G, A27U, G28A, U29A, U30A, C31U
DNA 1: CAATCTGAATTCCGGTCTCCC
DNA 2: TGGTGGCTACGACGGGATT
B16: GCGCGUU (DNA:RNA)
RNA: B1 RNA with A25G, A26C, A27G, G28C, U29G, C31U
DNA 1: CAATCTGAATTCCGGTCTCCC
DNA 2: TGGTGGCTACGACGGGATT
B17: UAUGUUG (DNA:RNA)
RNA: B1 RNA with A25U, A27U, C31G
DNA 1: CAATCTGAATTCCGGTCTCCC
DNA 2: TGGTGGCTACGACGGGATT
B18: AUGCCCC (DNA:RNA)
RNA: B1 RNA with A26U, A27G, G28C, U29C, U30C
DNA 1: CAATCTGAATTCCGGTCTCCC
DNA 2: TGGTGGCTACGACGGGATT
B19: CACUUAU (DNA:RNA)
RNA: B1 RNA with A25C, A27C, G28U, U30A, C31U
DNA 1: CAATCTGAATTCCGGTCTCCC
DNA 2: TGGTGGCTACGACGGGATT
B20: CAGGAGU (DNA:RNA)
RNA: B1 RNA with A25C, A27G, U29A, U30G, C31U
DNA 1: CAATCTGAATTCCGGTCTCCC
DNA 2: TGGTGGCTACGACGGGATT
B21: CAUGCCU (DNA:RNA)
RNA: B1 RNA with A25C, A27U, U29C, U30C, C31U
DNA 1: CAATCTGAATTCCGGTCTCCC
DNA 2: TGGTGGCTACGACGGGATT
B22: CCCCGAU (DNA:RNA)
RNA: GGGAGACCGGAAUUCAGAUUGUCCCCCCGAUUUAAAUCCCGUCGUAGCCACCA
DNA 1: CAATCTGAATTCCGGTCTCCC
DNA 2: TGGTGGCTACGACGGGATT
B23: GUCCACC (DNA:RNA)
RNA: B22 RNA with C25G, C26U, G29A, A30C, U31C
DNA 1: CAATCTGAATTCCGGTCTCCC
DNA 2: TGGTGGCTACGACGGGATT
B24: AGGGACG (DNA:RNA)
RNA: B1 RNA with A26G, A27G, U29A, U30C, C31G
DNA 1: CAATCTGAATTCCGGTCTCCC
DNA 2: TGGTGGCTACGACGGGATT
B25: AGGCUAU (DNA:RNA)
RNA: B22 RNA with C25A, C26G, C27G, G29U
DNA 1: CAATCTGAATTCCGGTCTCCC
DNA 2: TGGTGGCTACGACGGGATT
B26: CCAUGAC (DNA:RNA)
RNA: B22 RNA with C27A, C28U, U31C
DNA 1: CAATCTGAATTCCGGTCTCCC
DNA 2: TGGTGGCTACGACGGGATT
B27: GCUGUUG (DNA:RNA)
RNA: B1 RNA with A25G, A26C, A27U, C31G
DNA 1: CAATCTGAATTCCGGTCTCCC
DNA 2: TGGTGGCTACGACGGGATT
B28: AGGAUUA (DNA:RNA)
RNA: B1 RNA with A26G, A27G, G28A, C31A
DNA 1: CAATCTGAATTCCGGTCTCCC
DNA 2: TGGTGGCTACGACGGGATT
B29: UGGUUAG (DNA:RNA)
RNA: B1 RNA with A25U, A26G, A27G, G28U, U30A, C31G
DNA 1: CAATCTGAATTCCGGTCTCCC
DNA 2: TGGTGGCTACGACGGGATT
B30: UGGGCUG (DNA:RNA)
RNA: B1 RNA with A25U, A26G, A27G, U29C, C31G
DNA 1: CAATCTGAATTCCGGTCTCCC
DNA 2: TGGTGGCTACGACGGGATT
B31: CGGACAA (DNA:RNA)
RNA: B22 RNA with C26G, C27G, C28A, G29C, U31A
DNA 1: CAATCTGAATTCCGGTCTCCC
DNA 2: TGGTGGCTACGACGGGATT
B32: ACCCGUC (DNA:RNA)
RNA: B22 RNA with C25A, A30U, U31C
DNA 1: CAATCTGAATTCCGGTCTCCC
DNA 2: TGGTGGCTACGACGGGATT
B33: GGCAACG (DNA:RNA)
RNA: B22 RNA with C25G, C26G, C28A, G29A, A30C, U31G
DNA 1: CAATCTGAATTCCGGTCTCCC
DNA 2: TGGTGGCTACGACGGGATT
B34: CCCUACG (DNA:RNA)
RNA: B22 RNA with C28U, G29A, A30C, U31G
DNA 1: CAATCTGAATTCCGGTCTCCC
DNA 2: TGGTGGCTACGACGGGATT
B35: GAUGAAG (DNA:RNA)
RNA: B1 RNA with A25G, A27U, U29A, U30A, C31G
DNA 1: CAATCTGAATTCCGGTCTCCC
DNA 2: TGGTGGCTACGACGGGATT
B36: UACUGGU (DNA:RNA)
RNA: B22 RNA with C25U, C26A, C28U, A30G
DNA 1: CAATCTGAATTCCGGTCTCCC
DNA 2: TGGTGGCTACGACGGGATT
B37: AAAUUUC (DNA:RNA)
RNA: B1 RNA with G28U
DNA 1: CAATCTGAATTCCGGTCTCCC
DNA 2: TGGTGGCTACGACGGGATT
B38: GUAUACU (DNA:RNA)
RNA: B1 RNA with A25G, A26U, G28U, U29A, U30C, C31U
DNA 1: CAATCTGAATTCCGGTCTCCC
DNA 2: TGGTGGCTACGACGGGATT

Molecular target: T1, RBFOX1 RRM RbFoxmut (Fox-RRM*)
Experiment: EMSA; HiTS-Eq, 1 nM pool, 10 min; buffer printed only for the single-RNA assays: 10 mM Tris pH 7.5, 150 mM NaCl, 3.4 mM EDTA, 0.001% NP-40, 30 C
Conditions: tags: His6 N-terminal (pET28a); label: 5' 32P
How it was run: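 Relative association constants, normalised to the cognate motif, were derived by comparing read counts of each RNA species with those of the control reaction. The RNA sequenced was the free fraction, separated by 8% native PAGE after a 10 min equilibration in 50 µL of 1 nM 5′-radiolabelled RNA (7 randomized nucleotides) with increasing concentrations of purified wild-type or mutant RbFox RRM.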

Q: Which binding signal does the source give for B1 here?
A: 0.0827 KA relative to UGCAUGU

Q: B2 was tested. Which binding signal did it give?
A: 0.0871 KA relative to UGCAUGU

Q: Which binding signal does the source give for B3 here?
A: 0.081 KA relative to UGCAUGU

Q: How did the binding signal turn out when B4 was run?
A: 0.131 KA relative to UGCAUGU

Q: With B5 as the binder, how does the binding signal read?
A: 0.0419 KA relative to UGCAUGU

Q: Which binding signal does the source give for B6 here?
A: 0.0986 KA relative to UGCAUGU

Q: With B7 as the binder, how does the binding signal read?
A: 0.062 KA relative to UGCAUGU

Q: For B8, which binding signal is on record?
A: 0.0903 KA relative to UGCAUGU

Q: How did the binding signal turn out when B9 was run?
A: 0.139 KA relative to UGCAUGU

Q: With B10 as the binder, how does the binding signal read?
A: 0.078 KA relative to UGCAUGU

Q: With B11 as the binder, how does the binding signal read?
A: 0.043 KA relative to UGCAUGU

Q: How did the binding signal turn out when B12 was run?
A: 0.147 KA relative to UGCAUGU

Q: For B13, which binding signal is on record?
A: 0.0617 KA relative to UGCAUGU

Q: For B14, which binding signal is on record?
A: 0.0792 KA relative to UGCAUGU

Q: With B15 as the binder, how does the binding signal read?
A: 0.0806 KA relative to UGCAUGU

Q: For B16, which binding signal is on record?
A: 0.105 KA relative to UGCAUGU

Q: How did the binding signal turn out when B17 was run?
A: 0.16 KA relative to UGCAUGU

Q: B18 was tested. Which binding signal did it give?
A: 0.0672 KA relative to UGCAUGU

Q: How did the binding signal turn out when B19 was run?
A: 0.137 KA relative to UGCAUGU

Q: B20 was tested. Which binding signal did it give?
A: 0.165 KA relative to UGCAUGU

Q: For B21, which binding signal is on record?
A: 0.112 KA relative to UGCAUGU

Q: For B22, which binding signal is on record?
A: 0.0971 KA relative to UGCAUGU

Q: Which binding signal does the source give for B23 here?
A: 0.0734 KA relative to UGCAUGU

Q: Which binding signal does the source give for B24 here?
A: 0.119 KA relative to UGCAUGU

Q: How did the binding signal turn out when B25 was run?
A: 0.0829 KA relative to UGCAUGU

Q: Which binding signal does the source give for B26 here?
A: 0.119 KA relative to UGCAUGU

Q: How did the binding signal turn out when B27 was run?
A: 0.152 KA relative to UGCAUGU

Q: B28 was tested. Which binding signal did it give?
A: 0.133 KA relative to UGCAUGU

Q: With B29 as the binder, how does the binding signal read?
A: 0.171 KA relative to UGCAUGU

Q: For B30, which binding signal is on record?
A: 0.462 KA relative to UGCAUGU

Q: For B31, which binding signal is on record?
A: 0.057 KA relative to UGCAUGU

Q: B32 was tested. Which binding signal did it give?
A: 0.0923 KA relative to UGCAUGU

Q: How did the binding signal turn out when B33 was run?
A: 0.1 KA relative to UGCAUGU

Q: Which binding signal does the source give for B34 here?
A: 0.113 KA relative to UGCAUGU

Q: Which binding signal does the source give for B35 here?
A: 0.104 KA relative to UGCAUGU

Q: With B36 as the binder, how does the binding signal read?
A: 0.103 KA relative to UGCAUGU

Q: For B37, which binding signal is on record?
A: 0.08 KA relative to UGCAUGU

Q: With B38 as the binder, how does the binding signal read?
A: 0.137 KA relative to UGCAUGU
